Laboratory results: the supplement of paper PMC9151546
Most values come without repeats; read them as rough.

Legend:
[1] = system: CHO-K1; assay: relative survival (nuclei to bead ratio vs DMSO control) (% of vehicle control); higher = more surviving cells
Protocol: (§1)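 Flow-cytometric in vitro micronucleus assay (Litron MicroFlow) in CHO-K1 cells in 96-well plates, 19 concentrations (4.5-200 µM, n=1 per concentration). Without S9, cells were exposed for 24 h and sampled at 48 h. With Aroclor 1254-induced rat liver S9, cells were exposed for 3-4 h and sampled at 27-28 h. Read-outs are %MN and %hypodiploid nuclei relative to nucleated events, and relative survival as the nuclei-to-bead ratio versus the 1% DMSO vehicle control (x100).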

[2] = system: CHO-K1; assay: micronucleus frequency (% of nucleated events); higher = more micronuclei (genotoxic)
[3] = system: CHO-K1; assay: hypodiploid nuclei frequency (% of nucleated events); higher = more hypodiploid events (aneugenic)
Protocol: as §1
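Throughout, for hypodiploid nuclei frequency (% of nucleated events): hypodiploid nuclei gated on a flow cytometer with 488 nm excitation after SYTOX Green staining, cultures at 37 °C, positive controls vinblastine without S9 and cyclophosphamide with S9.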
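Throughout, for micronucleus frequency (% of nucleated events): cells lysed with nuclei stained by SYTOX Green, then micronucleus-gated events counted against nucleated events by flow cytometry with 488 nm excitation.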
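Throughout, for relative survival (nuclei to bead ratio vs DMSO control): Lysed-cell nuclei stained with SYTOX Green and counted against counting beads by flow cytometry at 488 nm excitation, with vinblastine (no S9) and cyclophosphamide (plus S9) as positive controls.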

CS(=O)(=O)OCCCCOS(C)(=O)=O [Busulfan]
Settings | hypodiploid nuclei frequency, [3] [%] | micronucleus frequency, [2] [%] | relative survival, [1]
concentration: 4.5 (µM), S9 metabolic activation: with S9, exposure time: 3-4 hours | 0.16 | 1.56 | 96.2
concentration: 4.5 (µM), S9 metabolic activation: without S9, exposure time: 24 hours | 0.64 | 1.4 | 107
concentration: 5.63 (µM), S9 metabolic activation: with S9, exposure time: 3-4 hours | 0.22 | 1.36 | 98.5
concentration: 5.63 (µM), S9 metabolic activation: without S9, exposure time: 24 hours | 0.62 | 1.44 | 108
concentration: 7.04 (µM), S9 metabolic activation: with S9, exposure time: 3-4 hours | 0.3 | 0.96 | 93
concentration: 7.04 (µM), S9 metabolic activation: without S9, exposure time: 24 hours | 0.78 | 1.22 | 112
concentration: 8.8 (µM), S9 metabolic activation: with S9, exposure time: 3-4 hours | 0.22 | 1.22 | 107
concentration: 8.8 (µM), S9 metabolic activation: without S9, exposure time: 24 hours | 0.72 | 1.36 | 111
concentration: 11 (µM), S9 metabolic activation: with S9, exposure time: 3-4 hours | 0.08 | 1.26 | 71.7
concentration: 11 (µM), S9 metabolic activation: without S9, exposure time: 24 hours | 0.7 | 1.34 | 118
concentration: 13.7 (µM), S9 metabolic activation: with S9, exposure time: 3-4 hours | 0.1 | 1.2 | 84.1
concentration: 13.7 (µM), S9 metabolic activation: without S9, exposure time: 24 hours | 0.76 | 1.8 | 102
concentration: 17.2 (µM), S9 metabolic activation: with S9, exposure time: 3-4 hours | 0.14 | 1.48 | 101
concentration: 17.2 (µM), S9 metabolic activation: without S9, exposure time: 24 hours | 0.54 | 1.54 | 104
concentration: 21.5 (µM), S9 metabolic activation: with S9, exposure time: 3-4 hours | 0.12 | 1.24 | 125
concentration: 21.5 (µM), S9 metabolic activation: without S9, exposure time: 24 hours | 0.48 | 1.42 | 113
concentration: 26.8 (µM), S9 metabolic activation: with S9, exposure time: 3-4 hours | 0.1 | 0.98 | 102
concentration: 26.8 (µM), S9 metabolic activation: without S9, exposure time: 24 hours | 0.58 | 2.32 | 110
concentration: 33.6 (µM), S9 metabolic activation: with S9, exposure time: 3-4 hours | 0.26 | 0.98 | 92.7
concentration: 33.6 (µM), S9 metabolic activation: without S9, exposure time: 24 hours | 0.64 | 2.54 | 102
concentration: 41.9 (µM), S9 metabolic activation: with S9, exposure time: 3-4 hours | 0.12 | 0.9 | 95.5
concentration: 41.9 (µM), S9 metabolic activation: without S9, exposure time: 24 hours | 0.64 | 3 | 99.2
concentration: 52.4 (µM), S9 metabolic activation: with S9, exposure time: 3-4 hours | 0.14 | 1.14 | 101
concentration: 52.4 (µM), S9 metabolic activation: without S9, exposure time: 24 hours | 0.88 | 2.64 | 96
concentration: 65.5 (µM), S9 metabolic activation: with S9, exposure time: 3-4 hours | 0.14 | 1.14 | 74.8
concentration: 65.5 (µM), S9 metabolic activation: without S9, exposure time: 24 hours | 0.66 | 1.84 | 85.2
concentration: 81.9 (µM), S9 metabolic activation: with S9, exposure time: 3-4 hours | 0.16 | 1.22 | 105
concentration: 81.9 (µM), S9 metabolic activation: without S9, exposure time: 24 hours | 0.78 | 1.62 | 96.5
concentration: 102 (µM), S9 metabolic activation: with S9, exposure time: 3-4 hours | 0.18 | 1 | 69.1
concentration: 102 (µM), S9 metabolic activation: without S9, exposure time: 24 hours | 0.52 | 2.2 | 94.2
concentration: 128 (µM), S9 metabolic activation: with S9, exposure time: 3-4 hours | 0.24 | 0.94 | 92.1
concentration: 128 (µM), S9 metabolic activation: without S9, exposure time: 24 hours | 0.76 | 2.04 | 91.7
concentration: 160 (µM), S9 metabolic activation: with S9, exposure time: 3-4 hours | 0.26 | 1.06 | 72.6
concentration: 160 (µM), S9 metabolic activation: without S9, exposure time: 24 hours | 0.94 | 2.56 | 105
concentration: 200 (µM), S9 metabolic activation: with S9, exposure time: 3-4 hours | 0.16 | 0.96 | 77.4
concentration: 200 (µM), S9 metabolic activation: without S9, exposure time: 24 hours | 0.84 | 2.2 | 103

CCCC(=O)O [Butanoic acid]
Settings | hypodiploid nuclei frequency, [3] [%] | micronucleus frequency, [2] [%] | relative survival, [1]
concentration: 4.5 (µM), S9 metabolic activation: with S9, exposure time: 3-4 hours | 0.24 | 1.9 | 142
concentration: 4.5 (µM), S9 metabolic activation: without S9, exposure time: 24 hours | 0.54 | 1.68 | 108
concentration: 5.63 (µM), S9 metabolic activation: with S9, exposure time: 3-4 hours | 0.24 | 1.58 | 173
concentration: 5.63 (µM), S9 metabolic activation: without S9, exposure time: 24 hours | 0.62 | 1.72 | 89.2
concentration: 7.04 (µM), S9 metabolic activation: with S9, exposure time: 3-4 hours | 0.26 | 0.86 | 153
concentration: 7.04 (µM), S9 metabolic activation: without S9, exposure time: 24 hours | 0.76 | 1.84 | 91.7
concentration: 8.8 (µM), S9 metabolic activation: with S9, exposure time: 3-4 hours | 0.16 | 1.52 | 164
concentration: 8.8 (µM), S9 metabolic activation: without S9, exposure time: 24 hours | 0.36 | 2.08 | 138
concentration: 11 (µM), S9 metabolic activation: with S9, exposure time: 3-4 hours | 0.28 | 1.08 | 126
concentration: 11 (µM), S9 metabolic activation: without S9, exposure time: 24 hours | 0.52 | 1.52 | 108
concentration: 13.7 (µM), S9 metabolic activation: with S9, exposure time: 3-4 hours | 0.22 | 1.06 | 128
concentration: 13.7 (µM), S9 metabolic activation: without S9, exposure time: 24 hours | 0.64 | 1.44 | 114
concentration: 17.2 (µM), S9 metabolic activation: with S9, exposure time: 3-4 hours | 0.16 | 1.22 | 135
concentration: 17.2 (µM), S9 metabolic activation: without S9, exposure time: 24 hours | 0.36 | 1.48 | 102
concentration: 21.5 (µM), S9 metabolic activation: with S9, exposure time: 3-4 hours | 0.3 | 1.16 | 133
concentration: 21.5 (µM), S9 metabolic activation: without S9, exposure time: 24 hours | 0.52 | 1.08 | 123
concentration: 26.8 (µM), S9 metabolic activation: with S9, exposure time: 3-4 hours | 0.12 | 1.64 | 154
concentration: 26.8 (µM), S9 metabolic activation: without S9, exposure time: 24 hours | 0.42 | 1.54 | 142
concentration: 33.6 (µM), S9 metabolic activation: with S9, exposure time: 3-4 hours | 0.18 | 1.16 | 130
concentration: 33.6 (µM), S9 metabolic activation: without S9, exposure time: 24 hours | 0.56 | 1.9 | 112
concentration: 41.9 (µM), S9 metabolic activation: with S9, exposure time: 3-4 hours | 0.3 | 0.88 | 120
concentration: 41.9 (µM), S9 metabolic activation: without S9, exposure time: 24 hours | 0.46 | 1.26 | 119
concentration: 52.4 (µM), S9 metabolic activation: with S9, exposure time: 3-4 hours | 0.26 | 1.1 | 144
concentration: 52.4 (µM), S9 metabolic activation: without S9, exposure time: 24 hours | 0.7 | 1.34 | 119
concentration: 65.5 (µM), S9 metabolic activation: with S9, exposure time: 3-4 hours | 0.2 | 0.96 | 150
concentration: 65.5 (µM), S9 metabolic activation: without S9, exposure time: 24 hours | 0.38 | 1.26 | 109
concentration: 81.9 (µM), S9 metabolic activation: with S9, exposure time: 3-4 hours | 0.24 | 1.04 | 155
concentration: 81.9 (µM), S9 metabolic activation: without S9, exposure time: 24 hours | 0.52 | 1.3 | 152
concentration: 102 (µM), S9 metabolic activation: with S9, exposure time: 3-4 hours | 0.28 | 1.24 | 149
concentration: 102 (µM), S9 metabolic activation: without S9, exposure time: 24 hours | 0.62 | 1.46 | 117
concentration: 128 (µM), S9 metabolic activation: with S9, exposure time: 3-4 hours | 0.18 | 0.96 | 140
concentration: 128 (µM), S9 metabolic activation: without S9, exposure time: 24 hours | 0.66 | 1.42 | 113
concentration: 160 (µM), S9 metabolic activation: with S9, exposure time: 3-4 hours | 0.2 | 0.94 | 147
concentration: 160 (µM), S9 metabolic activation: without S9, exposure time: 24 hours | 0.6 | 1.38 | 106
concentration: 200 (µM), S9 metabolic activation: with S9, exposure time: 3-4 hours | 0.16 | 1.1 | 118
concentration: 200 (µM), S9 metabolic activation: without S9, exposure time: 24 hours | 0.86 | 2.1 | 101
